Source: PubChem BioAssay AID881 (National Center for Advancing Translational Sciences (NCATS), 2007)
Out of some 110,000 compounds screened, about 610 (0.55%) were called active. The shares of active, inactive and inconclusive entries below differ from those in the screen. Calls follow the shape of the dose curve; as a rule, active = well fitted inhibition curve with a large enough effect; inconclusive = small, poorly fitted or top-dose-only effect; inactive = no such curve, though single readings can be large or run the other way. Potencies beside an inconclusive call are fits to weak or partial responses and may not hold up.

target: Polyunsaturated fatty acid lipoxygenase ALOX15B (Homo sapiens) (UniProt O15296); test: qHTS Assay for Inhibitors of 15-hLO-2 (15-human lipoxygenase 2); details: purified 15hLO-2, xylenol orange hydroperoxide absorbance; activity change, negative = inhibition: at 57.1 µM (top of the series) unless noted; also: nearly all actives have a fitted effect of over 60% in size
Method in brief: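 Purified human 15hLO-2 (50 nM final) preincubated with compounds 15 min at room temperature in 25 mM Hepes pH 7.5, 0.01% Triton X-100, then 45 uM arachidonic acid added for 90 min; hydroperoxide detected via ferrous/xylenol orange, 573/405 nm absorbance ratio.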
% is scaled to controls: 0 for no effect and ±100 for the full control effect; potency is read from the fitted curve at half-maximal effect; tags tell the direction and shape of the fitted curve.

UniProt O15296, sequence (O15296 whole entry, looked up): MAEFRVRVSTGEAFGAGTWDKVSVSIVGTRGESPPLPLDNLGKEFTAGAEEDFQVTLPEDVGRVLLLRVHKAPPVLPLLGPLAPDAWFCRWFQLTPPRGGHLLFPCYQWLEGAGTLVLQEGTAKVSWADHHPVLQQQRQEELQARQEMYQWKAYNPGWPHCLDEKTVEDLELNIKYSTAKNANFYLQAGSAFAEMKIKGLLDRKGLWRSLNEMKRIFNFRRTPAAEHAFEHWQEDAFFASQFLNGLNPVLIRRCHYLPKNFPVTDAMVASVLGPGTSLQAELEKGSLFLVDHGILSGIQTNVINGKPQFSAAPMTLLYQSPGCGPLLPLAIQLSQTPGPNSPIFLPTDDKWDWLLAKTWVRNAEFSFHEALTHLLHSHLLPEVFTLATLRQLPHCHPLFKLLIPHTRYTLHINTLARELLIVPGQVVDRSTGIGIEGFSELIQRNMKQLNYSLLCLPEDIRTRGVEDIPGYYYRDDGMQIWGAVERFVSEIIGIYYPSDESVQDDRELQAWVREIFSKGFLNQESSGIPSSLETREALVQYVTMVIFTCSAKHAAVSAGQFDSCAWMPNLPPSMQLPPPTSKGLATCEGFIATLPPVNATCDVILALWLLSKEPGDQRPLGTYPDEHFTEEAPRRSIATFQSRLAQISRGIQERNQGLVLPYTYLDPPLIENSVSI

Compound | activity change, negative = inhibition | Potency
Cc1oc(=O)c(NC(=O)c2cccc(Cl)c2)cc1C(=O)c1ccccc1 | inactive: -26.8% | –
COc1ccc(-n2nnnc2Sc2ccc(S(=O)(=O)N3CCOCC3)cn2)cc1 | – | inconclusive: 15.8 µM [inhibitor, partial curve]
CN(C)c1nc(-c2ccc3c(c2)OCO3)nc2ccccc12 | inactive: -15.6% | –
Cc1ccc(C)n1NC(=O)c1ccccc1 | – | inconclusive: 0.316 µM [inhibitor, full curve, poor fit]
Cc1ccc(/C=N/Nc2nc(Cl)c(Cl)cc2Cl)s1 | – | inconclusive: 12.6 µM [inhibitor, partial curve]
CN(C)c1ccc(/C=N\NC(=O)c2csnn2)cc1 | inactive: 1.09% | –
O=C(OCCN1CCOCC1)c1ccc2c(c1)OCCO2 | inactive: 7.42% | –
Cc1ccc(NC(=O)CN2C(=O)S/C(=C/c3ccc(-c4cc(C(=O)O)ccc4C)o3)C2=O)cc1C | – | active: 20 µM
O=c1cc(-c2cc(O)c(O)c(O)c2)oc2cc(O)cc(O)c12 | – | active: 12.6 µM
O=c1cc(CO)oc(C(Nc2ccccn2)c2ccc(F)cc2)c1O (stereo not drawn) | – | inconclusive: 10 µM [inhibitor, partial curve]
CN(C)c1nc(N)c(C(=O)Nc2cccnc2)nc1Cl | – | inconclusive: 15.8 µM [inhibitor, partial curve]
CN(C(=O)CSC1=Nc2ccccc2C2=NC(c3ccccc3)C(=O)N12)C1CCCCC1 (stereo not drawn) | – | inconclusive: 20 µM [inhibitor, partial curve]
COc1ccc(-c2c3c(nc4sc5c(=O)[nH]c(C)nc5c24)CCC3)cc1 | inactive: 7.71% | –
CCOC(=O)c1cc(C)sc1NC(=S)Nc1ccccc1 | – | inconclusive: 31.6 µM [inhibitor, single point]
CCCC1CCc2c(sc(N)c2C(N)=O)C1 (stereo not drawn) | – | inconclusive: 15.8 µM [inhibitor, partial curve]
CC(C)N1C(=O)CC2(CC[N+](C)(CCOC(=O)C(c3ccccc3)c3ccccc3)CC2)C1=O (stereo not drawn) | – | inconclusive: 31.6 µM [inhibitor, single point]
CCOc1cc(N2CCOCC2)c(OCC)cc1NC(=O)Cc1cccc(OC)c1 | inactive: -8.59% | –
COc1ccc(-c2nc3scc(-c4ccc(OC)c(OC)c4)c3c(=O)o2)cc1 | – | inconclusive: 15.8 µM [inhibitor, partial curve]
Cc1ccc(C)c(NC(=S)NNC(=O)c2ccco2)c1 | inactive: 5.16% | –
O=C1NC2(CCCc3ccccc32)C(=O)N1CCOc1ccc(Br)cc1 (stereo not drawn) | inactive: 4.19% | –
O=C1OCC(CO)(CO)N=C1NNc1cc(Cl)ccc1Cl | – | inconclusive: 5.01 µM [inhibitor, partial curve]
Cc1ccc(Cn2nnc3c(=O)[nH]c(C4CCN(S(=O)(=O)c5cc(C)ccc5C)CC4)nc32)cc1 | – | inconclusive: 12.6 µM [inhibitor, partial curve]
Cc1cccc(C)c1NC(=S)N/N=C/c1ccc(OCCC(C)C)cc1 | – | inconclusive: 20 µM [inhibitor, partial curve]

Compound | activity change, negative = inhibition | Potency
CC1CCN(c2nc(-c3ccco3)c3c(c2C#N)CC(C)(C)OC3)CC1 | – | inconclusive: 25.1 µM [inhibitor, single point]
CCOc1cc(NC(=S)NCC2CCCO2)c(OCC)cc1NC(=O)c1ccccc1C (stereo not drawn) | – | inconclusive: 12.6 µM [inhibitor, partial curve]
COc1cc(Cl)ccc1NC(=O)COc1ccccc1C(=O)N1CCN(c2ccc(O)cc2)CC1 | – | inconclusive: 3.16 µM [inhibitor, full curve, poor fit]
COc1ccc(C(=O)Nc2ccc(Cl)cc2C(=O)NCCN2CCOCC2)cc1 | – | inconclusive: 0.199 µM [inhibitor, full curve]
CNc1nc(-c2ccccc2)nc(-c2ccccc2)c1C#N | – | inconclusive: 0.631 µM [inhibitor, single point]
COc1cc(NS(=O)(=O)c2ccc(OC)c(C)c2C)c(OC)cc1Cl | – | inconclusive: 39.8 µM [inhibitor, single point]
Cc1ccc(C(=O)Nc2nnc(-c3ccc(C(C)(C)C)cc3)s2)cc1 | inactive: -6.75% | –
COc1cc2c(CCNC(C)=O)c[nH]c2cc1O | – | inconclusive: 12.6 µM [inhibitor, partial curve]
COc1ccc(-c2coc3ccc(OC4OC(COC(C)=O)C(OC(C)=O)C(OC(C)=O)C4OC(C)=O)cc3c2=O)cc1 (stereo not drawn) | inactive: -2.73% | –
Cc1ccc(CN2C(=O)C3CCCN3c3ccc(C#N)cc32)cc1 (stereo not drawn) | – | inconclusive: 15.8 µM [inhibitor, partial curve]
Cc1ccc(CNC(=O)c2cn(C3CCCCC3)c(=O)c3c2c2ccccc2n3C)o1 | – | inconclusive: 7.94 µM [inhibitor, partial curve]
Oc1ccc(N2CCN(C(=S)NCCc3ccccc3)CC2)cc1 | – | inconclusive: 15.8 µM [inhibitor, partial curve]
CCn1c(C)cc(/C=C2\SC(=O)N(CC(=O)Nc3ccc(C)c(C)c3)C2=O)c1C | – | inconclusive: 25.1 µM [inhibitor, partial curve]
CCOC(=O)Cc1nnc(NC(=O)CSc2ccccc2)s1 | – | inconclusive: 31.6 µM [inhibitor, single point]
O=C(/C=C/c1ccc(O)cc1)c1ccc(NC2=C(N3CCCCC3)C(=O)c3ccccc3C2=O)cc1 | – | inconclusive: 7.94 µM [inhibitor, partial curve]
Nc1cccc2cc(S(=O)(=O)Nc3ccc(C(=O)O)cc3)ccc12 | inactive: -8.96% [at 11.4 µM] | –
COC(=O)c1ccccc1NC(=O)CN(Cc1ccc(Cl)cc1)S(C)(=O)=O | inactive: 7.94% | –
O=C1C(=O)N(Cc2ccc(Cl)c(Cl)c2)c2ccccc21 | – | active: 7.94 µM
COCCn1c(SCc2nnc(-c3ccccc3)o2)nc2sc3c(c2c1=O)CCC3 | inactive: 0.846% | –
CCCC1=NN2C(=N)/C(=C\c3ccc(SCc4ccco4)o3)C(=O)N=C2S1 | – | inconclusive: 25.1 µM [inhibitor, partial curve]
O=C(O)[C@H]1C(=CCO)O[C@H]2CC(=O)N12 | – | inconclusive: 12.6 µM [inhibitor, partial curve, poor fit]
COc1ccc(Cl)cc1-c1n[nH]c(=S)n1C1CCCCC1 | – | inconclusive: 20 µM [inhibitor, partial curve]
Cc1ccc(S(=O)(=O)/C(C#N)=C/c2c[nH]c3ccccc23)cc1 | inactive: -6.31% | –

Compound | activity change, negative = inhibition | Potency
CC(C)(C)c1ccc(Cn2nnc3c(=O)[nH]c(C4CCN(C(=O)Cc5cccs5)CC4)nc32)cc1 | – | inconclusive: 39.8 µM [inhibitor, single point]
O=C(Nc1nnc(SCC(=O)N2CCCCC2)s1)c1cccs1 | – | inconclusive: 39.8 µM [inhibitor, single point]
COc1ccc(C2(C)NC(=O)N(CC(=O)NCCC3=CCCCC3)C2=O)cc1OC (stereo not drawn) | inactive: 7.2% | –
Nc1cc(S(N)(=O)=O)ccc1SSc1ccc(S(N)(=O)=O)cc1N | – | inconclusive: 3.98 µM [inhibitor, single point]
Cc1[nH]n(-c2cccc(Cl)c2)c(=O)c1-c1ccc(Cl)cc1 | – | inconclusive: 7.94 µM [inhibitor, partial curve]
Fc1cccc(Cn2cc(C(=S)N3CCCCC3)c3ccccc32)c1 | – | inconclusive: 31.6 µM [inhibitor, single point]
O=C(Oc1ccc(C(=S)N2CCOCC2)cc1Br)c1cc(Cl)ccc1Cl | – | inconclusive: 1.58 µM [inhibitor, full curve, poor fit]
C=CC(C1=CC(=O)C(OC)=C(OC)C1=O)c1ccccc1 (stereo not drawn) | – | inconclusive: 3.16 µM [inhibitor, partial curve, poor fit]
C/C(=C\C(=O)c1ccc(F)cc1)Nc1ccc(N2CCOCC2)cc1 | – | inconclusive: 25.1 µM [inhibitor, single point]
COc1cc2[nH]c(=O)n(CCC(=O)N3CCN(c4cccc(C)c4C)CC3)c(=O)c2cc1OC | – | inconclusive: 25.1 µM [inhibitor, single point]
Cc1c(NC(=O)NC(C)N2C(=O)C3C4C=CC(C4)C3C2=O)c(=O)n(-c2ccccc2)n1C (stereo not drawn) | – | inconclusive: 0.316 µM [inhibitor, full curve, poor fit]
CCOc1cccc2cc(-c3nnc(NCc4ccco4)s3)c(=O)oc12 | – | inconclusive: 25.1 µM [inhibitor, single point]
N#C/C(=C/c1ccc(N2CCCCCC2)o1)c1ccc(Cl)cc1 | – | active: 7.94 µM
Cc1cc(Cl)ccc1NC(=S)NCc1ccccc1 | – | inconclusive: 15.8 µM [inhibitor, partial curve]
COc1ccc(CNC(=O)C(C#N)c2nc3ccccc3nc2N2CCN(C)CC2)cc1 (stereo not drawn) | inactive: 18.7% | –
CC[n+]1c(/C=C2\C=C(C)CC(C)C2)sc2ccccc21 (stereo not drawn) | – | inconclusive: 12.6 µM [inhibitor, partial curve]
NC(=O)c1ccc(-c2nc(-c3ccc4c(c3)OCO4)c(-c3ccccn3)[nH]2)cc1 | inactive: 20.8% | –
Cc1cc(S(=O)(=O)NCCN(C)C)c(C)s1 | – | inconclusive: 0.199 µM [inhibitor, full curve]
COc1ccc(-n2nc3cc(C)c(NC(=S)NC(=O)c4ccccc4C)cc3n2)cc1 | – | inconclusive: 12.6 µM [inhibitor, partial curve, poor fit]
NC(=O)CC(c1ccccc1)c1ccco1 (stereo not drawn) | – | inconclusive: 0.126 µM [inhibitor, full curve, poor fit]
C=CCn1c(NC(=O)CC)c(C(=O)OCC)sc1=S | inactive: -24.1% | –
CC(C)(C)c1cc(C(=O)/C=C/c2ccc(C(=O)O)cc2)cc(C(C)(C)C)c1 | – | inconclusive: 7.94 µM [inhibitor, full curve, poor fit]
